# Test results published in the supplement of paper PMC8728848.
# The other results are listed elsewhere or left out.
# B1: PFL (Pseudomonas fluorescens) (protein)
# chain: MSKYAVANQWGGSSAPWHPGGTWVLGARDNQNVVAIEIKSGDGGKSFTGTMTYAGEGPIGFKAQRTGQNQYNVENQWGGNDAPWHPGGKWVIGGRDNQNVIALSVTSSDGGKNLSGTNTYANEGPIGFRGQIE
# Columns and labels:
# Test in all cases: glycan array binding signal (z-score within array); higher = stronger binding
# Conditions in all cases: glycan notation: IUPAC condensed, linker removed
# Gal(a1-6)Glc = biological target: Gal(a1-6)Glc
# Summary of the method: (§1)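 Glycan array binding is given as a within-array Z-score, which can be read as non-binding when negative. The arrays, 3228 of them, came from the Consortium for Functional Glycomics database and were retained only where the protein sequence was available. Z-scores were averaged across arrays of the same protein sequence at different concentrations or buffers and across linkers.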
# Gal(b1-2)Gal = biological target: Gal(b1-2)Gal
# Summary of the method: as §1
# Gal(b1-3)Gal = biological target: Gal(b1-3)Gal
# Summary of the method: as §1
# Gal(b1-3)Gal(b1-4)GlcNAc = biological target: Gal(b1-3)Gal(b1-4)GlcNAc
# Summary of the method: as §1
# Gal(b1-3)GalNAc = biological target: Gal(b1-3)GalNAc
# Summary of the method: as §1
# [1] = biological target: Gal(b1-3)GalNAc(a1-3)[Fuc(a1-2)]Gal(b1-4)Glc
# Summary of the method: as §1
# [2] = biological target: Gal(b1-3)GalNAc(a1-3)[Fuc(a1-2)]Gal(b1-4)GlcNAc
# Summary of the method: as §1
# Gal(b1-3)GalNAc(b1-3)Gal = biological target: Gal(b1-3)GalNAc(b1-3)Gal
# Summary of the method: as §1
# [3] = biological target: Gal(b1-3)GalNAc(b1-3)Gal(a1-4)Gal(b1-4)Glc
# Summary of the method: as §1
# [4] = biological target: Gal(b1-3)GalNAc(b1-4)Gal(b1-4)Glc
# Summary of the method: as §1
# [5] = biological target: Gal(b1-3)GalNAc(b1-4)[Neu5Ac(a2-3)]Gal(b1-4)Glc
# Summary of the method: as §1
# Gal(b1-3)GlcNAc = biological target: Gal(b1-3)GlcNAc
# Summary of the method: as §1
# [6] = biological target: Gal(b1-3)GlcNAc(a1-3)Gal(b1-4)GlcNAc
# Summary of the method: as §1
# [7] = biological target: Gal(b1-3)GlcNAc(a1-6)Gal(b1-4)GlcNAc
# Summary of the method: as §1
# Gal(b1-3)GlcNAc(b1-2)Man = biological target: Gal(b1-3)GlcNAc(b1-2)Man
# Summary of the method: as §1
# [8] = biological target: Gal(b1-3)GlcNAc(b1-2)Man(a1-3)[Gal(b1-3)GlcNAc(b1-2)Man(a1-6)]Man(b1-4)GlcNAc(b1-4)GlcNAc
# Summary of the method: as §1
# [9] = biological target: Gal(b1-3)GlcNAc(b1-2)Man(a1-3)[Gal(b1-3)GlcNAc(b1-2)Man(a1-6)]Man(b1-4)GlcNAc(b1-4)[Fuc(a1-6)]GlcNAc
# Summary of the method: as §1
# [10] = biological target: Gal(b1-3)GlcNAc(b1-2)Man(a1-3)[GlcNAc(b1-4)][Gal(b1-3)GlcNAc(b1-2)Man(a1-6)]Man(b1-4)GlcNAc(b1-4)GlcNAc
# Summary of the method: as §1
# [11] = biological target: Gal(b1-3)GlcNAc(b1-2)[Gal(b1-3)GlcNAc(b1-6)]Man(a1-6)[Gal(b1-3)GlcNAc(b1-2)Man(a1-3)]Man(b1-4)GlcNAc(b1-4)GlcNAc
# Summary of the method: as §1
# [12] = biological target: Gal(b1-3)GlcNAc(b1-3)Gal(b1-3)GlcNAc
# Summary of the method: as §1
# [13] = biological target: Gal(b1-3)GlcNAc(b1-3)Gal(b1-4)Glc
# Summary of the method: as §1
# [14] = biological target: Gal(b1-3)GlcNAc(b1-3)Gal(b1-4)GlcNAc
# Summary of the method: as §1
# [15] = biological target: Gal(b1-3)GlcNAc(b1-3)Gal(b1-4)GlcNAc(b1-2)Man(a1-3)[Gal(b1-3)GlcNAc(b1-3)Gal(b1-4)GlcNAc(b1-2)Man(a1-6)]Man(b1-4)GlcNAc(b1-4)GlcNAc
# Summary of the method: as §1
# [16] = biological target: Gal(b1-3)GlcNAc(b1-3)Gal(b1-4)GlcNAc(b1-2)[Gal(b1-3)GlcNAc(b1-3)Gal(b1-4)GlcNAc(b1-6)]Man(a1-6)[Gal(b1-3)GlcNAc(b1-3)Gal(b1-4)GlcNAc(b1-2)Man(a1-3)]Man(b1-4)GlcNAc(b1-4)[Fuc(a1-6)]GlcNAc
# Summary of the method: as §1
# [17] = biological target: Gal(b1-3)GlcNAc(b1-3)Gal(b1-4)GlcNAc(b1-3)Gal(b1-4)GlcNAc(b1-2)[Gal(b1-3)GlcNAc(b1-3)Gal(b1-4)GlcNAc(b1-3)Gal(b1-4)GlcNAc(b1-6)]Man(a1-6)[Gal(b1-3)GlcNAc(b1-3)Gal(b1-4)GlcNAc(b1-3)Gal(b1-4)GlcNAc(b1-2)Man(a1-3)]Man(b1-4)GlcNAc(b1-4)[Fuc(a1-6)]GlcNAc
# Summary of the method: as §1
# [18] = biological target: Gal(b1-3)GlcNAc(b1-3)Gal(b1-4)GlcNAc(b1-6)[Gal(b1-3)GlcNAc(b1-3)]Gal(b1-4)Glc
# Summary of the method: as §1
# [19] = biological target: Gal(b1-3)GlcNAc(b1-3)Gal(b1-4)[Fuc(a1-3)]GlcNAc
# Summary of the method: as §1
# [20] = biological target: Gal(b1-3)GlcNAc(b1-3)Gal(b1-4)[Fuc(a1-3)]GlcNAc(b1-6)[Gal(b1-3)GlcNAc(b1-3)]Gal(b1-4)Glc
# Summary of the method: as §1
# [21] = biological target: Gal(b1-3)GlcNAc(b1-3)GalNAc
# Summary of the method: as §1
# [22] = biological target: Gal(b1-3)GlcNAc(b1-6)Gal(b1-4)GlcNAc
# Summary of the method: as §1
# [23] = biological target: Gal(b1-3)GlcNAc(b1-6)GalNAc
# Summary of the method: as §1
# [24] = biological target: Gal(b1-3)GlcNAc(b1-6)[Gal(b1-3)]GalNAc
# Summary of the method: as §1
# Gal(b1-3)GlcNAc6S = biological target: Gal(b1-3)GlcNAc6S
# Summary of the method: as §1
# [25] = biological target: Gal(b1-3)[Fuc(a1-4)]GlcNAc
# Summary of the method: as §1
# [26] = biological target: Gal(b1-3)[Fuc(a1-4)]GlcNAc(b1-2)Man
# Summary of the method: as §1
# [27] = biological target: Gal(b1-3)[Fuc(a1-4)]GlcNAc(b1-2)Man(a1-3)[Gal(b1-3)[Fuc(a1-4)]GlcNAc(b1-2)Man(a1-6)]Man(b1-4)GlcNAc(b1-4)[Fuc(a1-6)]GlcNAc
# Summary of the method: as §1
# [28] = biological target: Gal(b1-3)[Fuc(a1-4)]GlcNAc(b1-3)Gal(b1-3)[Fuc(a1-4)]GlcNAc
# Summary of the method: as §1
# [29] = biological target: Gal(b1-3)[Fuc(a1-4)]GlcNAc(b1-3)Gal(b1-4)[Fuc(a1-3)]GlcNAc
# Summary of the method: as §1
# [30] = biological target: Gal(b1-3)[Fuc(a1-4)]GlcNAc(b1-6)GalNAc
# Summary of the method: as §1
# [31] = biological target: Gal(b1-3)[GlcNAc(b1-6)]GalNAc
# Summary of the method: as §1
# [32] = biological target: Gal(b1-3)[Neu5Ac(a2-6)]GalNAc
# Summary of the method: as §1
# [33] = biological target: Gal(b1-3)[Neu5Ac(a2-6)]GlcNAc(b1-4)Gal(b1-4)Glc
# Summary of the method: as §1
# [34] = biological target: Gal(b1-3)[Neu5Ac(b2-6)]GalNAc
# Summary of the method: as §1
# Gal(b1-4)Gal = biological target: Gal(b1-4)Gal
# Summary of the method: as §1
# [35] = biological target: Gal(b1-4)GalNAc(a1-3)[Fuc(a1-2)]Gal(b1-4)GlcNAc
# Summary of the method: as §1
binder,measurement,setting,value
B1,glycan array binding signal (z-score),Gal(a1-6)Glc,-0.116
same,glycan array binding signal (z-score),Gal(b1-2)Gal,-0.113
same,glycan array binding signal (z-score),Gal(b1-3)Gal,-0.118
same,glycan array binding signal (z-score),Gal(b1-3)Gal(b1-4)GlcNAc,-0.117
same,glycan array binding signal (z-score),Gal(b1-3)GalNAc,-0.114
same,glycan array binding signal (z-score),[1],-0.113
same,glycan array binding signal (z-score),[2],-0.113
same,glycan array binding signal (z-score),Gal(b1-3)GalNAc(b1-3)Gal,-0.12
same,glycan array binding signal (z-score),[3],-0.116
same,glycan array binding signal (z-score),[4],-0.115
same,glycan array binding signal (z-score),[5],-0.115
same,glycan array binding signal (z-score),Gal(b1-3)GlcNAc,-0.115
same,glycan array binding signal (z-score),[6],-0.118
same,glycan array binding signal (z-score),[7],-0.12
same,glycan array binding signal (z-score),Gal(b1-3)GlcNAc(b1-2)Man,-0.112
same,glycan array binding signal (z-score),[8],0.026
same,glycan array binding signal (z-score),[9],0.052
same,glycan array binding signal (z-score),[10],0.248
same,glycan array binding signal (z-score),[11],0.071
same,glycan array binding signal (z-score),[12],-0.11
same,glycan array binding signal (z-score),[13],-0.119
same,glycan array binding signal (z-score),[14],-0.115
same,glycan array binding signal (z-score),[15],0.01
same,glycan array binding signal (z-score),[16],0.261
same,glycan array binding signal (z-score),[17],0.086
same,glycan array binding signal (z-score),[18],-0.116
same,glycan array binding signal (z-score),[19],-0.115
same,glycan array binding signal (z-score),[20],-0.11
same,glycan array binding signal (z-score),[21],-0.113
same,glycan array binding signal (z-score),[22],-0.114
same,glycan array binding signal (z-score),[23],-0.117
same,glycan array binding signal (z-score),[24],-0.093
same,glycan array binding signal (z-score),Gal(b1-3)GlcNAc6S,-0.115
same,glycan array binding signal (z-score),[25],-0.113
same,glycan array binding signal (z-score),[26],-0.112
same,glycan array binding signal (z-score),[27],0.665
same,glycan array binding signal (z-score),[28],-0.096
same,glycan array binding signal (z-score),[29],-0.115
same,glycan array binding signal (z-score),[30],-0.107
same,glycan array binding signal (z-score),[31],-0.118
same,glycan array binding signal (z-score),[32],-0.116
same,glycan array binding signal (z-score),[33],-0.117
same,glycan array binding signal (z-score),[34],-0.117
same,glycan array binding signal (z-score),Gal(b1-4)Gal,-0.112
same,glycan array binding signal (z-score),[35],-0.114
